# Experimental data published in the supplement of paper PMC8728848.
# Some of the results follow.
# B1: LCA (Lens culinaris), P02870 (protein)
# chain: MASLQTQMISFYLIFLSILLTTIFFFKVNSTETTSFSITKFSPDQKNLIFQGDGYTTKGKLTLTKAVKSTVGRALYSTPIHIWDRDTGNVANFVTSFTFVIDAPSSYNVADEFTFFIAPVDTKPQTGGGYLGVFNSKEYDKTSQTVAVEFDTFYNAAWDPSNKERHIGIDVNSIKSVNTKSWNLQNGERANVVIAFNAATNVLTVTLTYPNSLEEENVTSYTLNEVVPLKDVVPEWVRIGFSATTGAEFAAHEVHSWSFHSELGGTSSSKQAADA
# Columns and labels:
# Assay in all cases: glycan array binding signal (z-score within array); higher = stronger binding
# Conditions in all cases: glycan notation: IUPAC condensed, linker removed
# [1] = target: Neu5Ac(a2-3)[GalNAc(b1-4)]Gal(b1-4)Glc
# Procedure, shortened: (§1)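 From the Consortium for Functional Glycomics database, 3228 arrays were curated, keeping only those whose protein sequence was available. Binding is given as a within-array Z-score averaged across arrays sharing a protein sequence and across linkers. Negative Z-scores can be read as non-binding.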
# [2] = target: Neu5Ac(a2-3)[GalNAc(b1-4)]Gal(b1-4)GlcNAc
# Procedure, shortened: as §1
# [3] = target: Neu5Ac(a2-3)[GalNAc(b1-4)]Gal(b1-4)GlcNAc(b1-3)GalNAc
# Procedure, shortened: as §1
# [4] = target: Neu5Ac(a2-3)[Neu5Ac(a2-6)]GalNAc
# Procedure, shortened: as §1
# [5] = target: Neu5Ac(a2-6)Gal
# Procedure, shortened: as §1
# [6] = target: Neu5Ac(a2-6)Gal(b1-3)GlcNAc(b1-3)[Gal(b1-4)GlcNAc(b1-6)]Gal(b1-4)Glc
# Procedure, shortened: as §1
# [7] = target: Neu5Ac(a2-6)Gal(b1-4)Glc
# Procedure, shortened: as §1
# [8] = target: Neu5Ac(a2-6)Gal(b1-4)GlcNAc
# Procedure, shortened: as §1
# [9] = target: Neu5Ac(a2-6)Gal(b1-4)GlcNAc(b1-2)Man
# Procedure, shortened: as §1
# [10] = target: Neu5Ac(a2-6)Gal(b1-4)GlcNAc(b1-2)Man(a1-3)Man(b1-4)GlcNAc(b1-4)GlcNAc
# Procedure, shortened: as §1
# [11] = target: Neu5Ac(a2-6)Gal(b1-4)GlcNAc(b1-2)Man(a1-3)[Gal(b1-4)GlcNAc(b1-2)Man(a1-6)]Man(b1-4)GlcNAc(b1-4)GlcNAc
# Procedure, shortened: as §1
# [12] = target: Neu5Ac(a2-6)Gal(b1-4)GlcNAc(b1-2)Man(a1-3)[GlcNAc(b1-2)Man(a1-6)]Man(b1-4)GlcNAc(b1-4)GlcNAc
# Procedure, shortened: as §1
# [13] = target: Neu5Ac(a2-6)Gal(b1-4)GlcNAc(b1-2)Man(a1-3)[GlcNAc(b1-4)][Neu5Ac(a2-6)Gal(b1-4)GlcNAc(b1-2)Man(a1-6)]Man(b1-4)GlcNAc(b1-4)GlcNAc
# Procedure, shortened: as §1
# [14] = target: Neu5Ac(a2-6)Gal(b1-4)GlcNAc(b1-2)Man(a1-3)[Man(a1-6)]Man(b1-4)GlcNAc(b1-4)GlcNAc
# Procedure, shortened: as §1
# [15] = target: Neu5Ac(a2-6)Gal(b1-4)GlcNAc(b1-2)Man(a1-3)[Neu5Ac(a2-3)Gal(b1-4)GlcNAc(b1-2)Man(a1-6)]Man(b1-4)GlcNAc(b1-4)GlcNAc
# Procedure, shortened: as §1
# [16] = target: Neu5Ac(a2-6)Gal(b1-4)GlcNAc(b1-2)Man(a1-3)[Neu5Ac(a2-6)Gal(b1-4)GlcNAc(b1-2)Man(a1-6)]Man(b1-4)GlcNAc(b1-4)GlcNAc
# Procedure, shortened: as §1
# [17] = target: Neu5Ac(a2-6)Gal(b1-4)GlcNAc(b1-2)Man(a1-3)[Neu5Ac(a2-6)Gal(b1-4)GlcNAc(b1-2)Man(a1-6)]Man(b1-4)GlcNAc(b1-4)[Fuc(a1-6)]GlcNAc
# Procedure, shortened: as §1
# [18] = target: Neu5Ac(a2-6)Gal(b1-4)GlcNAc(b1-2)Man(a1-6)Man(b1-4)GlcNAc(b1-4)GlcNAc
# Procedure, shortened: as §1
# [19] = target: Neu5Ac(a2-6)Gal(b1-4)GlcNAc(b1-2)Man(a1-6)[Gal(b1-4)GlcNAc(b1-2)Man(a1-3)]Man(b1-4)GlcNAc(b1-4)GlcNAc
# Procedure, shortened: as §1
# [20] = target: Neu5Ac(a2-6)Gal(b1-4)GlcNAc(b1-2)Man(a1-6)[GlcNAc(b1-2)Man(a1-3)]Man(b1-4)GlcNAc(b1-4)GlcNAc
# Procedure, shortened: as §1
# [21] = target: Neu5Ac(a2-6)Gal(b1-4)GlcNAc(b1-2)Man(a1-6)[Man(a1-3)]Man(b1-4)GlcNAc(b1-4)GlcNAc
# Procedure, shortened: as §1
# [22] = target: Neu5Ac(a2-6)Gal(b1-4)GlcNAc(b1-2)[Neu5Ac(a2-6)Gal(b1-4)GlcNAc(b1-4)]Man(a1-3)[GlcNAc(b1-4)][Neu5Ac(a2-6)Gal(b1-4)GlcNAc(b1-2)[Neu5Ac(a2-6)Gal(b1-4)GlcNAc(b1-6)]Man(a1-6)]Man(b1-4)GlcNAc(b1-4)GlcNAc
# Procedure, shortened: as §1
# [23] = target: Neu5Ac(a2-6)Gal(b1-4)GlcNAc(b1-2)[Neu5Ac(a2-6)Gal(b1-4)GlcNAc(b1-4)]Man(a1-3)[GlcNAc(b1-4)][Neu5Ac(a2-6)Gal(b1-4)GlcNAc(b1-4)Man(a1-6)]Man(b1-4)GlcNAc(b1-4)GlcNAc
# Procedure, shortened: as §1
# [24] = target: Neu5Ac(a2-6)Gal(b1-4)GlcNAc(b1-2)[Neu5Ac(a2-6)Gal(b1-4)GlcNAc(b1-6)]Man(a1-6)[Neu5Ac(a2-6)Gal(b1-4)GlcNAc(b1-2)Man(a1-3)][GlcNAc(b1-4)]Man(b1-4)GlcNAc(b1-4)GlcNAc
# Procedure, shortened: as §1
# [25] = target: Neu5Ac(a2-6)Gal(b1-4)GlcNAc(b1-3)Gal(b1-3)GlcNAc
# Procedure, shortened: as §1
# [26] = target: Neu5Ac(a2-6)Gal(b1-4)GlcNAc(b1-3)Gal(b1-4)GlcNAc
# Procedure, shortened: as §1
# [27] = target: Neu5Ac(a2-6)Gal(b1-4)GlcNAc(b1-3)Gal(b1-4)GlcNAc(b1-2)Man(a1-3)[Neu5Ac(a2-6)Gal(b1-4)GlcNAc(b1-3)Gal(b1-4)GlcNAc(b1-2)Man(a1-6)]GalNAc
# Procedure, shortened: as §1
# [28] = target: Neu5Ac(a2-6)Gal(b1-4)GlcNAc(b1-3)Gal(b1-4)GlcNAc(b1-3)Gal(b1-4)GlcNAc
# Procedure, shortened: as §1
# [29] = target: Neu5Ac(a2-6)Gal(b1-4)GlcNAc(b1-3)Gal(b1-4)GlcNAc(b1-3)Gal(b1-4)GlcNAc(b1-2)Man(a1-3)[Neu5Ac(a2-6)Gal(b1-4)GlcNAc(b1-3)Gal(b1-4)GlcNAc(b1-3)Gal(b1-4)GlcNAc(b1-2)Man(a1-6)]GalNAc
# Procedure, shortened: as §1
# [30] = target: Neu5Ac(a2-6)Gal(b1-4)GlcNAc(b1-3)Gal(b1-4)GlcNAc(b1-3)GalNAc
# Procedure, shortened: as §1
# [31] = target: Neu5Ac(a2-6)Gal(b1-4)GlcNAc(b1-3)Gal(b1-4)GlcNAc(b1-3)[Neu5Ac(a2-6)Gal(b1-4)GlcNAc(b1-3)Gal(b1-4)GlcNAc(b1-6)]GalNAc
# Procedure, shortened: as §1
# [32] = target: Neu5Ac(a2-6)Gal(b1-4)GlcNAc(b1-3)Gal(b1-4)GlcNAc(b1-6)[Gal(b1-3)]GalNAc
# Procedure, shortened: as §1
# [33] = target: Neu5Ac(a2-6)Gal(b1-4)GlcNAc(b1-3)Gal(b1-4)[Fuc(a1-3)]GlcNAc(b1-3)Gal(b1-4)[Fuc(a1-3)]GlcNAc
# Procedure, shortened: as §1
# [34] = target: Neu5Ac(a2-6)Gal(b1-4)GlcNAc(b1-3)GalNAc
# Procedure, shortened: as §1
# [35] = target: Neu5Ac(a2-6)Gal(b1-4)GlcNAc(b1-3)[Neu5Ac(a2-6)Gal(b1-4)GlcNAc(b1-6)]GalNAc
# Procedure, shortened: as §1
# [36] = target: Neu5Ac(a2-6)Gal(b1-4)GlcNAc(b1-6)GalNAc
# Procedure, shortened: as §1
# [37] = target: Neu5Ac(a2-6)Gal(b1-4)GlcNAc(b1-6)[Gal(b1-3)GlcNAc(b1-3)]Gal(b1-4)Glc
# Procedure, shortened: as §1
# [38] = target: Neu5Ac(a2-6)Gal(b1-4)GlcNAc(b1-6)[Gal(b1-3)]GalNAc
# Procedure, shortened: as §1
binder,measurement,setting,value
B1,glycan array binding signal (z-score),[1],-0.235
same,glycan array binding signal (z-score),[2],-0.21
same,glycan array binding signal (z-score),[3],0.102
same,glycan array binding signal (z-score),[4],-0.228
same,glycan array binding signal (z-score),[5],-0.218
same,glycan array binding signal (z-score),[6],-0.232
same,glycan array binding signal (z-score),[7],-0.197
same,glycan array binding signal (z-score),[8],-0.202
same,glycan array binding signal (z-score),[9],-0.23
same,glycan array binding signal (z-score),[10],-0.214
same,glycan array binding signal (z-score),[11],-0.188
same,glycan array binding signal (z-score),[12],-0.017
same,glycan array binding signal (z-score),[13],-0.24
same,glycan array binding signal (z-score),[14],-0.239
same,glycan array binding signal (z-score),[15],-0.222
same,glycan array binding signal (z-score),[16],-0.178
same,glycan array binding signal (z-score),[17],4.04
same,glycan array binding signal (z-score),[18],-0.23
same,glycan array binding signal (z-score),[19],-0.207
same,glycan array binding signal (z-score),[20],-0.231
same,glycan array binding signal (z-score),[21],-0.202
same,glycan array binding signal (z-score),[22],-0.236
same,glycan array binding signal (z-score),[23],-0.227
same,glycan array binding signal (z-score),[24],-0.211
same,glycan array binding signal (z-score),[25],-0.296
same,glycan array binding signal (z-score),[26],-0.22
same,glycan array binding signal (z-score),[27],-0.067
same,glycan array binding signal (z-score),[28],-0.234
same,glycan array binding signal (z-score),[29],0.072
same,glycan array binding signal (z-score),[30],-0.224
same,glycan array binding signal (z-score),[31],0.285
same,glycan array binding signal (z-score),[32],-0.146
same,glycan array binding signal (z-score),[33],-0.224
same,glycan array binding signal (z-score),[34],-0.22
same,glycan array binding signal (z-score),[35],-0.238
same,glycan array binding signal (z-score),[36],-0.204
same,glycan array binding signal (z-score),[37],-0.209
same,glycan array binding signal (z-score),[38],-0.226
